The values below come from the supplement of paper PMC4604168 (melanoma cell lines).

Test systems include G361; IPC-298; IST-MEL1; LOXIMVI; MEL-HO; MeWo; RPMI7951; RVH-421; SkMel28; SkMel2; SkMel30; SkMel5; UACC257; UACC62; WM115; WM1716; WM1745; WM3526; LB2518-MEL; MZ2-MEL.
Assay in all cases: cell count relative to DMSO control; melanoma cells; higher = more viable cells
What all share (conditions): library dose: standard library concentration; 72 h

Some of the results follow. Single values are uncertain, as repeats are few or missing.
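Note: cells treated in 1,536-well plates, then fixed and DAPI-stained, with nuclei counted from automated high-throughput microscope images.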

In the case of `C=CCNC1=C2C[C@@H](C)C[C@H](OC)[C@H](O)[C@@H](C)/C=C(\C)[C@H](OC(N)=O)[C@@H](OC)/C=C\C=C(/C)C(=O)NC(=CC1=O)C2=O` [Tanespimycin] + Cn1nnc2c(C(N)=O)ncn2c1=O [temozolomide] (first compound 0.01 µM, partner dose 10 µM), the cell count in the experiment with G361 stood at 71.9%; in the experiment on IPC-298, 92.9%; in the experiment with IST-MEL1 it was 73.3%; in the experiment with LOXIMVI, 86.4%; in the experiment on MEL-HO it was 96.5%; in the experiment with MeWo it was 76.2%. Further, the cell count in the experiment with RPMI7951 turned out to be 24%; in the experiment on RVH-421 it was 63%; in the experiment with SkMel28, 38.6%; with SkMel2, 98%; in the experiment on SkMel30 it was 76.7%; in the experiment with SkMel5, 68.7%. The cell count was determined as 98.9% with UACC257; 62% in the experiment on UACC62; 27.5% with WM115; 58.6% in the experiment with WM1716; 62.9% in the experiment with WM1745; 85.7% in the experiment on WM3526.

As to `CN1CCN(c2ccc3nc(-c4c(N)c5c(F)cccc5[nH]c4=O)[nH]c3c2)CC1` [Dovitinib] + O=C1NC(=O)/C(=C/c2ccc(-c3ccc(F)cc3O)o2)S1 [AS252424] (first compound 0.5 µM, partner dose 5 µM), the cell count was determined as 37.6% with G361; 60.5% with IPC-298; 74.5% in the experiment with IST-MEL1; 57.2% with LB2518-MEL; 62.8% in the experiment with LOXIMVI; 71.2% in the experiment on MEL-HO. Further, the cell count in the experiment on MZ2-MEL came out at 44.9%; in the experiment on MeWo, 49.2%; in the experiment with RPMI7951, 70.5%; in the experiment on RVH-421, 91.7%; in the experiment on SkMel28, 48.1%; in the experiment on SkMel2, 48.8%. Besides, the cell count was 104% in the experiment with SkMel30; 64.2% in the experiment with SkMel5; 76% in the experiment on UACC257; 89.8% with UACC62; 65.4% in the experiment with WM115; 89.8% with WM1716. The molecule also returned a cell count in the experiment with WM3526 of 64.1%.

With `C[C@@H](Oc1cc(-c2cnn(C3CCNCC3)c2)cnc1N)c1c(Cl)ccc(F)c1Cl` [Crizotinib] + C=CCNC1=C2C[C@@H](C)C[C@H](OC)[C@H](O)[C@@H](C)/C=C(\C)[C@H](OC(N)=O)[C@@H](OC)/C=C\C=C(/C)C(=O)NC(=CC1=O)C2=O [Tanespimycin] (first compound 1 µM, partner dose 0.01 µM), the cell count came out at 73.5% in the experiment with G361; 92.1% in the experiment on IPC-298; 87.8% with IST-MEL1; 139% with LOXIMVI; 94.5% with MEL-HO; 79.6% in the experiment on MeWo. The cell count with RPMI7951 is 45.3%; in the experiment on RVH-421, 141%; in the experiment with SkMel28, 62.7%; with SkMel2, 93.4%; in the experiment with SkMel30 it was 106%; in the experiment on SkMel5, 85.6%. Further, the cell count came out at 94.4% with UACC257; 78.2% with UACC62; 28.7% in the experiment on WM115; 83% in the experiment on WM1716; 56.7% in the experiment with WM1745; 84% with WM3526.

In the case of `CNC(=O)c1cc(Oc2ccc(NC(=O)Nc3ccc(Cl)c(C(F)(F)F)c3)cc2)ccn1` [sorafenib] + Nc1ccn([C@@H]2O[C@H](CO)[C@@H](O)C2(F)F)c(=O)n1 [gemcitabine] (first compound 2 µM, partner dose 0.002 µM), the cell count with G361 stood at 46.2%; in the experiment with IPC-298, 37%; in the experiment on IST-MEL1, 46.9%; in the experiment on LOXIMVI it was 91.2%; with MEL-HO, 63.5%; in the experiment with MeWo, 43.9%. Also, the cell count was found to be 78.5% in the experiment with RPMI7951; 61.8% in the experiment with RVH-421; 124% in the experiment on SkMel28; 87.1% with SkMel2; 119% with SkMel30; 84.8% in the experiment on SkMel5. The cell count in the experiment with UACC257 was 94%; in the experiment with UACC62, 88.4%; in the experiment on WM115, 90.3%; in the experiment on WM1716 it was 75.4%; in the experiment on WM1745, 52.4%; with WM3526, 85%.

Take `CN1CCN(c2ccc3nc(-c4c(N)c5c(F)cccc5[nH]c4=O)[nH]c3c2)CC1` [Dovitinib] + O=C(O)C(=O)Nc1sc2c(c1C(=O)O)CCNC2 [TCS401] (first compound 0.5 µM, partner dose 8.33333 µM): the cell count with G361 stood at 68.6%; with IPC-298, 85.3%; in the experiment on IST-MEL1, 76.6%; in the experiment on LB2518-MEL, 53.6%; in the experiment on LOXIMVI, 99.5%; in the experiment on MEL-HO, 85.4%. Further, the cell count in the experiment on MZ2-MEL is 67.5%; in the experiment on MeWo, 56.1%; with RPMI7951 it was 99.7%; with RVH-421, 71.5%; in the experiment on SkMel28 it was 70.6%; in the experiment with SkMel2 it was 81.8%. In addition, the cell count in the experiment with SkMel30 came to 103%; in the experiment on SkMel5, 65.1%; in the experiment on UACC257 it was 70.5%; with UACC62 it was 91.2%; with WM115, 65.2%; with WM1716 it was 66.7%. Also, in the experiment on WM3526, the cell count is 69.7%.

On to `CS(=O)(=O)CCNCc1ccc(-c2ccc3ncnc(Nc4ccc(OCc5cccc(F)c5)c(Cl)c4)c3c2)o1` [lapatinib] + O=c1cc(-c2cccc3c2Sc2ccccc2S3)oc(N2CCOCC2)c1 [KU55933] (first compound 4 µM, partner dose 5 µM), for which the cell count was found to be 36.6% in the experiment with G361; 80.6% in the experiment with IPC-298; 77% in the experiment on IST-MEL1; 86% with LOXIMVI; 77% in the experiment with MEL-HO; 69.6% with MeWo. Also, the cell count in the experiment on RPMI7951 worked out at 55.3%; in the experiment on RVH-421, 92.1%; in the experiment on SkMel28 it was 103%; in the experiment on SkMel2, 79.7%; in the experiment with SkMel30 it was 93.2%; with SkMel5, 53.7%. Further, the cell count turned out to be 95.9% in the experiment with UACC257; 72.9% with UACC62; 93.3% with WM115; 71.5% with WM1716; 81.4% with WM3526.

With `C[C@@H](Oc1cc(-c2cnn(C3CCNCC3)c2)cnc1N)c1c(Cl)ccc(F)c1Cl` [Crizotinib] + O=C(Nc1ccccc1)c1cc([N+](=O)[O-])ccc1Cl [GW9662] (first compound 1 µM, partner dose 10 µM), the cell count was 70.6% in the experiment with G361; 94.2% with IPC-298; 99.1% in the experiment with IST-MEL1; 71.4% in the experiment with LOXIMVI; 77.1% in the experiment with MEL-HO; 59% with MeWo. The cell count in the experiment with RPMI7951 stood at 108%; with RVH-421, 66.1%; in the experiment with SkMel28, 60.8%; in the experiment with SkMel2, 90.3%; with SkMel30, 88.2%; in the experiment on SkMel5, 83.9%. Further, the cell count with UACC257 was determined as 76.6%; in the experiment on UACC62 it was 64%; with WM115, 63.1%; in the experiment with WM1716 it was 82.6%; in the experiment with WM3526, 88%.
